Data: the supplement of paper PMC12217912
The other results are listed elsewhere or left out. Sequences were assembled here from the parent chain. Values near 0.05 are background.

B1: TEV protease; numbered along this chain (parent)
chain: MGESLFKGPRDYNPISSSICHLTNESDGHTTSLYGIGFGPFIITNKHLFRRNNGTLVVQSLHGVFKVKDTTTLQQHLVDGRDMIIIRMPKDFPPFPQKLKFREPQREERICLVTTNFQTKSMSSMVSDTSCTFPSGDGIFWKHWIQTKDGQCGSPLVSTRDGFIVGIHSASNFTNTNNYFTSVPKNFMELLTNQEAQQWVSGWRLNADSVLWGGHKVFMVKPEEPFQPVKEATQL

Variants of: B1
Assay: raw area under fraction-flipped curve 0-4 h after induction (AUC4h, not background-subtracted), DNA-recorder readout of cleavage of the substrate (dimensionless); higher = more cleavage of the substrate by the protease variant
Settings: temperature: 34 °C; time window: 0-4 h after rhamnose induction
Description: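 In vivo DNA recorder in E. coli TOP10(DE3) ΔrhaA at 34 °C. Each TEVp single-site mutant (parent TEVp 0) is paired with a single-site variant of the 7-mer TEVs (canonical ENLYFQ|S). The substrate sits between flexible linkers in a Bxb1-sfGFP-TEVs-SsrA fusion, so cleavage stabilises Bxb1 and speeds flipping of a recombination array, read by NGS. The value is the raw area under the fraction-flipped curve over 0-4 h after rhamnose induction (AUC4h), with ≥20 reads per time point. It is not background-subtracted; inactive controls average about 0.047.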
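Further: Bxb1 expression induced with 0.2% (w/v) L-rhamnose at OD600 near 0.5, cultures sampled hourly, flipped fraction per protease–substrate barcode pair counted by paired-end Illumina sequencing.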

| Variant | area with substrate ENLAFQS | area with substrate ENLDFQS | area with substrate ENLEFQS | area with substrate ENLFFQS | area with substrate ENLGFQS | area with substrate ENLHFQS | area with substrate ENLIFQS | area with substrate ENLKFQS | area with substrate ENLLFQS | area with substrate ENLMFQS | area with substrate ENLNFQS | area with substrate ENLPFQS | area with substrate ENLQFQS | area with substrate ENLRFQS | area with substrate ENLSFQS | area with substrate ENLTFQS | area with substrate ENLVFQS | area with substrate ENLWFQS | area with substrate ENLCFQS |
| --- | --- | --- | --- | --- | --- | --- | --- | --- | --- | --- | --- | --- | --- | --- | --- | --- | --- | --- | --- |
| D208W | 0.0606 | 0.0634 | 0.0546 | 0.0522 | 0.0691 | 0.0694 | 0.0596 | 0.0576 | 0.0538 | 0.0922 | 0.0657 | 0.0571 | 0.0589 | 0.0628 | 0.0646 | 0.0372 | 0.0818 | 0.0606 | – |
| D208R | 0.0613 | 0.0698 | 0.0477 | 0.067 | – | 0.0516 | 0.0707 | – | – | – | 0.0604 | 0.0576 | – | 0.0314 | 0.0619 | – | 0.0453 | – | 0.0639 |
| D208Y | 0.0524 | 0.0756 | 0.0587 | 0.0604 | 0.0667 | 0.052 | – | 0.055 | 0.058 | – | 0.0553 | 0.0633 | – | 0.0632 | 0.0597 | – | 0.0253 | 0.0587 | 0.0611 |
| D208T | 0.0666 | 0.0881 | 0.0588 | 0.0737 | – | 0.0714 | 0.062 | 0.0583 | 0.0754 | – | 0.0661 | 0.0692 | – | – | 0.0777 | 0.0572 | – | 0.0645 | 0.0539 |
| E224Q | 0.0904 | 0.0564 | 0.0533 | 0.087 | 0.0661 | 0.0671 | 0.0766 | 0.0732 | 0.0925 | – | 0.07 | 0.0491 | – | – | 0.0682 | – | 0.0953 | 0.0693 | 0.0662 |
| E224L | 0.0561 | 0.0585 | – | 0.0779 | – | 0.0658 | 0.0888 | – | 0.0558 | – | 0.0575 | 0.0654 | – | 0.0718 | – | – | – | – | – |
| E224I | 0.0665 | 0.0706 | 0.0629 | 0.0901 | – | 0.0757 | 0.0789 | 0.0852 | 0.0512 | 0.0697 | 0.0741 | 0.0613 | 0.0636 | 0.0716 | 0.0769 | – | – | – | 0.064 |
| L191C | 0.0594 | 0.06 | 0.0798 | 0.0787 | – | 0.0667 | – | 0.11 | 0.064 | – | 0.0745 | 0.0666 | 0.0706 | 0.0594 | 0.0151 | – | – | 0.11 | 0.0495 |
| Q194G | 0.0616 | 0.0664 | 0.0652 | 0.0799 | 0.0874 | 0.072 | 0.0863 | 0.0778 | – | – | 0.0681 | 0.0651 | – | 0.0666 | – | – | 0.101 | – | – |
| K221E | 0.0516 | 0.0756 | 0.0669 | 0.0763 | – | 0.0894 | 0.0794 | 0.0913 | 0.0475 | – | 0.0656 | 0.065 | 0.0734 | 0.088 | 0.0758 | 0.0774 | 0.0788 | – | – |
| K216V | 0.0653 | 0.0608 | 0.0613 | 0.0867 | 0.0601 | – | – | – | – | – | 0.0777 | 0.0569 | – | – | 0.0772 | 0.0933 | – | 0.0806 | – |
| K216A | 0.0558 | 0.0586 | – | 0.0818 | 0.0539 | – | – | 0.0685 | – | – | 0.0593 | – | – | – | 0.0553 | – | 0.0675 | – | 0.0585 |
| K216N | 0.0801 | – | 0.0622 | 0.0544 | – | 0.0666 | 0.0382 | 0.0845 | – | 0.069 | 0.0239 | 0.0651 | – | – | 0.0657 | – | 0.0902 | – | 0.0744 |
| K216P | 0.0578 | 0.0556 | – | 0.0679 | 0.0557 | – | – | 0.0729 | 0.0728 | – | – | 0.0622 | – | – | – | – | – | – | – |
| K216M | 0.0582 | – | 0.0427 | – | – | – | 0.0653 | 0.0691 | – | 0.0802 | – | 0.0623 | 0.0767 | – | – | 0.0769 | – | – | – |
| G214S | 0.0621 | 0.0824 | – | – | – | 0.0489 | 0.0642 | – | – | 0.0681 | – | – | – | – | – | – | – | – | 0.0762 |
| G214C | 0.0449 | – | – | – | – | – | – | 0.0689 | – | – | – | – | – | – | 0.0633 | – | – | – | – |
| A232L | 0.0612 | 0.0779 | – | 0.0802 | 0.0677 | – | 0.108 | 0.0744 | 0.0567 | – | 0.087 | 0.0564 | 0.0869 | 0.0897 | 0.043 | – | – | 0.0743 | – |
| A232R | 0.07 | – | 0.0591 | 0.0823 | – | 0.0707 | – | 0.0945 | 0.08 | – | 0.052 | 0.0663 | – | 0.0795 | 0.0641 | – | – | 0.0662 | 0.0608 |
| A232E | 0.0618 | 0.0582 | 0.0573 | – | – | 0.0598 | 0.0556 | 0.0854 | – | 0.0603 | 0.0667 | 0.0693 | 0.0707 | 0.0926 | 0.0528 | – | 0.12 | 0.0901 | 0.0691 |
| W212V | 0.0787 | 0.0704 | 0.072 | 0.086 | 0.0746 | 0.0618 | 0.079 | 0.0892 | – | 0.0511 | – | 0.0614 | 0.0742 | 0.0841 | 0.0801 | 0.0746 | 0.126 | 0.0839 | 0.0773 |
| V220Q | 0.07 | 0.0575 | 0.059 | 0.0935 | 0.0857 | 0.0744 | 0.0625 | 0.0722 | – | 0.0767 | 0.0601 | 0.0503 | 0.0732 | – | 0.0375 | – | 0.0816 | 0.066 | 0.0535 |
| T192K | 0.0744 | 0.0572 | 0.0726 | 0.0913 | – | 0.0719 | 0.0757 | 0.0717 | 0.0971 | – | 0.0588 | – | – | 0.0713 | 0.0514 | 0.0834 | 0.085 | – | 0.0804 |
| T192L | 0.0638 | 0.083 | 0.0479 | 0.083 | 0.0536 | 0.0685 | – | 0.068 | 0.0642 | 0.0823 | 0.0824 | 0.0561 | 0.0546 | – | 0.0447 | – | – | – | – |
| T192N | 0.076 | 0.0487 | 0.0782 | 0.0299 | 0.0703 | 0.0448 | 0.0955 | 0.0835 | 0.0738 | 0.0757 | 0.0734 | 0.0503 | 0.0771 | – | 0.0583 | – | – | 0.0616 | 0.0658 |
| Y12V | – | 0.0622 | 0.0762 | 0.0732 | – | 0.0671 | – | 0.0777 | 0.079 | 0.0715 | 0.058 | 0.0586 | 0.0621 | 0.0635 | 0.0593 | – | 0.093 | 0.0647 | 0.0783 |
| N206F | 0.0677 | 0.06 | 0.0564 | 0.11 | – | – | 0.0786 | 0.0836 | 0.0631 | – | 0.0678 | 0.0502 | 0.0588 | 0.0679 | 0.0647 | – | 0.0659 | – | 0.0781 |
